Paper PMC4336329 (PLoS ONE, 2015)
Out of some 310,000 compounds screened, about 14,000 (4.5%) showed an effect of 50% or more. Effects have a minus sign here. Some of the results follow.

biological target: human ether-à-go-go-related gene (hERG) potassium channel (human, UniProt Q12809); assay: primary screen, population patch clamp on CHO cells stably expressing hERG
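Also: peak tail current of the secondary pulse compared with the same well before compound.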

human ether-à-go-go-related gene (hERG) potassium channel, sequence (Q12809 whole entry, looked up): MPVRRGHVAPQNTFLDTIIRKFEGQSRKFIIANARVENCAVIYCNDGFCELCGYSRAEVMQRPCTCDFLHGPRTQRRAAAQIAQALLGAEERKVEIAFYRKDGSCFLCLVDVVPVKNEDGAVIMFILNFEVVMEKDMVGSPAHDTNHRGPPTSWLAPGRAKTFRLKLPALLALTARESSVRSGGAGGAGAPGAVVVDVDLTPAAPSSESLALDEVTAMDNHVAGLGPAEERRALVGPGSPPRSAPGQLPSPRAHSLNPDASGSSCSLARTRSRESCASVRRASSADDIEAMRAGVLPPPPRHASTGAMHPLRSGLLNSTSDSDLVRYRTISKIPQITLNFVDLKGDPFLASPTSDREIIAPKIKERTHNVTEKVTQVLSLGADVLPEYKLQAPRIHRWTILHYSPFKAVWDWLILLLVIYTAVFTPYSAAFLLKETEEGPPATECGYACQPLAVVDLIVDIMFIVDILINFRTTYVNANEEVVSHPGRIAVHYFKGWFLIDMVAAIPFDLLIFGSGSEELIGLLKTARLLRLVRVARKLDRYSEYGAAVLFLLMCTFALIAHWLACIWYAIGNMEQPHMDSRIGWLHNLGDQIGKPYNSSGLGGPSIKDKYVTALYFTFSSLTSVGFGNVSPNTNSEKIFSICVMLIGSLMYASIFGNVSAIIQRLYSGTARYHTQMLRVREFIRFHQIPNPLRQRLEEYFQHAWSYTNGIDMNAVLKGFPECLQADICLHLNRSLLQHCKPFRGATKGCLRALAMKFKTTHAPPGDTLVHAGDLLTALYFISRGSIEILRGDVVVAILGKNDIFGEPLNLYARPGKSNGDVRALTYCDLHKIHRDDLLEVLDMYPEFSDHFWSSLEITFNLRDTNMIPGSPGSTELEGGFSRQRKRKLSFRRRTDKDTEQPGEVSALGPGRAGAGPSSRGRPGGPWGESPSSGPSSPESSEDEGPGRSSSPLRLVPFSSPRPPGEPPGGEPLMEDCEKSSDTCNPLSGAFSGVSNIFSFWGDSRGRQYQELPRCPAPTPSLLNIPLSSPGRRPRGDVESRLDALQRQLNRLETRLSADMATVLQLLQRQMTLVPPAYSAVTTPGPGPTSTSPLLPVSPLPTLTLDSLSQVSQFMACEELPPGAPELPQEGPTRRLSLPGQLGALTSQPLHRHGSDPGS

| SMILES | hERG current change (%, negative = inhibition) at 10uM |
| --- | --- |
| COc1ccc(S(=O)(=O)N2CCOCC2)c2ccccc12 | 1.96% |
| CC(C)C(NC(=O)C1CCC(C(C)(C)C)CC1)C(=O)NCCc1ccc(S(N)(=O)=O)cc1 (stereo not shown) | 14.1% |
| Cc1ccc(/C(N)=N/OC(=O)N2CCOCC2)cc1 | -1.21% |
| O=C(/C=C/c1ccccc1)Nc1ccc2c(c1)C(=O)NC2=O | -17.2% |
| Cc1ccc(-c2c[n+](CC(=O)Nc3nc(-c4ccccc4)cs3)c3n2CCC3)cc1.[Cl-] | -54.9% |
| CC1C2CC(C(CN(C)C)/C2=N/O)C1(C)C (stereo not shown) | -9.04% |
| COc1ccc(NC(=O)Cn2cc(C(=O)C3CC3)c3ccccc32)cc1 | 12.9% |
| COc1cccc(C2CC(=O)Nc3cc(OC)c(OC)cc32)c1 (stereo not shown) | -1.86% |
| O=c1[nH]ncc(NCc2ccc(Cl)cc2)c1Cl | 27.4% |
| CCOc1ccc(NC(=O)COc2ccc(C(=O)NCCc3ccccc3)cc2)cc1 | -2.9% |
| COc1ccc(-n2c(C)csc2=S)cc1 | 2.76% |
| CC(=O)COc1cc2c(-c3cc4ccccc4o3)cc(=O)oc2cc1C | 20.6% |
| Cc1ccn2c(=O)c(C(=O)O)cnc2c1 | 17.1% |
| COC(=O)c1ccccc1NC(=O)CSc1nnnn1C1CCCCC1 | -48% |
| CC(=O)c1cccc(NC(=O)c2ccc(-c3ccccc3[N+](=O)[O-])o2)c1 | -17.4% |
| CCCn1nc(C(=O)NCc2ccc3c(c2)OCO3)c2ccccc2c1=O | 1.89% |
| O=C(CSc1ccc(-c2ccccn2)nn1)Nc1ccccc1 | -16.9% |
| CCN(CC)CCn1c2c(c(SCC(=O)Nc3ccc4c(c3)OCCO4)nc1=O)CCCC2 | -20.4% |
| Cn1nccc1NS(=O)(=O)c1ccc(NC(=O)C(F)(F)F)cc1 | -7.34% |
| COc1ccc(S(=O)(=O)N[C@@H](CC(C)C)C(=O)O)cc1 | 9.19% |
| CCOCCCn1cnc2c3cc(F)ccc3n(C)c2c1=O | -22.9% |
| CS(=O)(=O)N1CCN(C(=O)c2ccc(Br)s2)CC1 | -22.6% |
| COc1cccc(-c2nc3c(c(=O)[nH]c(=O)n3Cc3ccccc3)n2CCO)c1OC(F)F | 4.72% |

| SMILES | hERG current change (%, negative = inhibition) at 10uM |
| --- | --- |
| COCCOc1ccc(C(F)(F)F)cc1NC(=O)COC(=O)c1cc([N+](=O)[O-])ccc1N1CCOCC1 | 5.55% |
| O=C(O)c1ccc2c(c1)OCCCO2 | 4.27% |
| COc1ccc([C@@H]2[C@@H]3C(=O)N(C(C)(C)C)C(=O)[C@@H]3[C@]3(CC(C)C)C(=O)N(c4ccc(C(F)(F)F)cc4)C(=O)N23)cc1 | 8.67% |
| O=C(Cn1cc([N+](=O)[O-])cn1)Nc1nc2ccccc2s1 | -74.6% |
| O=c1[nH]c(=O)n(Cc2ccccc2)c(O)c1/C=N/NCCO | 3.36% |
| CC(C)C1Nc2ccc(C(=O)N3CCN(c4ccccn4)CC3)cc2NC1=O (stereo not shown) | 12.2% |
| COCCn1c(SCC(=O)Nc2ccc(N3CCOCC3)cc2)nc2ccccc21 | -4.58% |
| C/C(NCC(C)(C)CN(C)C)=C(/C#N)C(=O)NCc1ccccc1 | -41.1% |
| O=C(O)c1ccc(S(=O)(=O)c2ccc3c(c2)C(=O)N(NC(=O)c2cccnc2)C3=O)cc1 | -10.8% |
| COC(=O)c1cc2nc(-c3ccccc3)cc(C(F)(F)F)n2n1 | 19.7% |
| O=S(=O)(c1ccc(N2CCC(c3ccc(Cl)cc3)=N2)cc1)N(CCO)CCO | -7.86% |
| CCc1ccc(N2CC(C(=O)N/N=C/c3ccccc3OC)CC2=O)cc1 (stereo not shown) | -7.16% |
| CCC(=O)N(Cc1cc2ccccc2[nH]c1=O)C(C)C | 9.4% |
| COc1cc(CNn2c(C)n[nH]c2=S)cc(Br)c1OCc1ccc(F)cc1 | 11.8% |
| Clc1ccccc1-c1cc(COc2ccc3ccccc3c2)no1 | 12.9% |
| NC(=O)c1nn(-c2ccccc2)nc1NC(=O)CN1CCCCC1 | -8.81% |
| CC(=O)c1cccc(NC(=S)NC(=O)C(C)C)c1 | 0.165% |
| CC[N+]1(CC)CC2=Cc3c(ccc4ccccc34)C(C)C2C1.[Br-] (stereo not shown) | -12.1% |
| COc1ccc(S(=O)(=O)N(C)CC(=O)O)c2ccccc12 | 11.2% |
| COC(=O)CC1C(=O)NCCN1C(=O)CSc1nc2ccccc2o1 (stereo not shown) | 10.6% |
| S=C1NCCc2ccccc2C1c1ccccc1Cl (stereo not shown) | -6.1% |
| O=C(NCc1cccnc1)C12CC3CC(CC(Cl)(C3)C1)C2 | 12.9% |
| CCN(C(=O)COC(=O)c1ccc(Cl)c(N)c1)C1CCS(=O)(=O)C1 (stereo not shown) | 25.1% |
